# According to PubChem BioAssay AID504332 (National Center for Advancing Translational Sciences (NCATS), 2011):
# Among all 350,000 compounds or so, about 31,000 (8.9%) were called active. Inconclusive means that the source gave no clear call. Such entries were picked first, then a sample of the others. The call rests on the fitted dose curve; in most records, active means well fitted inhibition curve with a large enough effect; inconclusive means small, poorly fitted or top-dose-only effect; inactive means no such curve, though single readings can be large or run the other way. A potency beside an inconclusive call is a rough fit, not a confirmed value.
# Target: Histone-lysine N-methyltransferase EHMT2 (Homo sapiens) (UniProt Q96KQ7)
# Chain of UniProt Q96KQ7 (Q96KQ7 whole entry, looked up): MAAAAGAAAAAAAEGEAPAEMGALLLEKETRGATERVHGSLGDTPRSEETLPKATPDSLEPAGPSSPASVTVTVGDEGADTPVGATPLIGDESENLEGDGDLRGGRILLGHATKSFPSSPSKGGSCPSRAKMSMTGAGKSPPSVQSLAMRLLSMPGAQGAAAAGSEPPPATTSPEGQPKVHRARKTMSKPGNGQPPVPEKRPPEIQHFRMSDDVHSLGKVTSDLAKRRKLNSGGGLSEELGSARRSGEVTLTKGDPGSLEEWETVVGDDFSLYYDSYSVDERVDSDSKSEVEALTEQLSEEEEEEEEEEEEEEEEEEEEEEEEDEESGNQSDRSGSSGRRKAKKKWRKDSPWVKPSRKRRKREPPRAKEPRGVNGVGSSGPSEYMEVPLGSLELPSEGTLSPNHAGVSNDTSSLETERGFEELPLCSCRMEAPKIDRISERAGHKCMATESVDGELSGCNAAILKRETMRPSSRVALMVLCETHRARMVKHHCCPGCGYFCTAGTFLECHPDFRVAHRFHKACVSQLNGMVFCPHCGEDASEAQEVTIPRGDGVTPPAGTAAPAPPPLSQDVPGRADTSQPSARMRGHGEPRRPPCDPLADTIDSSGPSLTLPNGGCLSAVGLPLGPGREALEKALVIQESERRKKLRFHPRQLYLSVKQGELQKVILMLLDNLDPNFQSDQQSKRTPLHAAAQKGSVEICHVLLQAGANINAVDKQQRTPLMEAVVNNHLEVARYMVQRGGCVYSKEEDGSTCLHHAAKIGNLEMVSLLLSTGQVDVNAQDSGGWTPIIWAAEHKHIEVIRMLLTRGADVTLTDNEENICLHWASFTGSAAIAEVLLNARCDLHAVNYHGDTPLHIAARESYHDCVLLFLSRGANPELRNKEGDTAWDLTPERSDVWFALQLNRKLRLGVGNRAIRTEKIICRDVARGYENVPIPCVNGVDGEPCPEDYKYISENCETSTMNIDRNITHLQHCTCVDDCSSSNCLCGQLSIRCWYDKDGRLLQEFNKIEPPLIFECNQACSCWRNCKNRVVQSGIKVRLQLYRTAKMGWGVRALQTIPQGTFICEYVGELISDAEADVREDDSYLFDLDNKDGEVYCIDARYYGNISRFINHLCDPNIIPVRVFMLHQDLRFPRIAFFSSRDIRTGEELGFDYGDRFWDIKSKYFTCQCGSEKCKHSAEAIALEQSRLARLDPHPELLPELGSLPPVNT
# Assay: qHTS Assay for Inhibitors of Histone Lysine Methyltransferase G9a; further: nearly all actives have a fitted effect of over 75% in size
# Conditions: G9a H3K9 monomethylation, AlphaScreen, 2 h; activity, negative = inhibition: at 59 µM (top of the series) unless noted
# In short: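 AlphaScreen detection with an anti-monomethyl H3K9 antibody quantified product after a 2 h room-temperature reaction containing 500 nM biotinylated H3K9 peptide, 20 µM SAM and 20 nM enzyme, which had been preincubated 15 min with compound.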
# On the % scale 0 is the no-effect control and ±100 the full control effect; potency means the concentration at half of the fitted maximal effect; tags describe the fitted curve by direction and shape.
Structure (SMILES),"activity, negative = inhibition",Potency
O=C(O)c1cn(-c2ccc(F)cc2)c2cc(N3CCNCC3)c(F)cc2c1=O,inconclusive: -54% [inhibitor] [at 2.33 µM],
COc1ccc(CCNC(=O)Nc2ccc([N+](=O)[O-])cc2)cc1OC,inactive: -44% [at 102 µM],
Cc1ccc(C)c(S(=O)(=O)N2CCCOC2CNC(=O)C(=O)NC2CCCC2)c1 (configuration not stated),,"inconclusive: 56.2 µM [inhibitor, single point]"
COc1ccccc1N1CCN(CC(O)COc2ccc3c(c2)OCO3)CC1 (configuration not stated),,"inconclusive: 56.2 µM [inhibitor, partial curve, poor fit]"
COC(=O)c1c(NC(=O)c2ccco2)sc(C(=O)N(C)C)c1C,,"inconclusive: 39.8 µM [inhibitor, single point]"
CC(=O)c1oc2ccccc2c1N,,"inconclusive: 70.8 µM [inhibitor, single point]"
c1ccc(-c2cnnc(N3CCOCC3)n2)cc1,inactive: -9.61%,
COc1ccc(N2CCN(Cc3nc4c(c(=O)[nH]c(=O)n4C)n3Cc3cccc(Cl)c3)CC2)cc1,inconclusive: -96.3% [inhibitor],
Cc1ccc2nc3c(cc2c1)c(NC(=O)c1ccco1)nn3CC(C)C,,"inconclusive: 70.8 µM [inhibitor, single point]"
CC(OC(=O)CCc1nc2ccccc2c(=O)[nH]1)C(=O)Nc1ncc(Cl)cc1Cl (configuration not stated),,"inconclusive: 1.78 µM [inhibitor, full curve, poor fit]"
O=C(NNC(=S)Nc1cccc(C(F)(F)F)c1)c1cccc(Cl)c1,,"inconclusive: 25.1 µM [inhibitor, single point]"
CCCCc1ccc(NC(=O)CSc2nc(=O)n(CCN(CC)CC)c3c2CCCC3)cc1,,"inconclusive: 50.1 µM [inhibitor, partial curve]"
O=C(O)c1cn2c3c(ccc(Cl)c3c1=O)OCC2,,"inconclusive: 89.1 µM [inhibitor, single point]"
COc1cccc(/C=C2\SC(=S)N(CCC(=O)NC3C=CS(=O)(=O)C3)C2=O)c1 (configuration not stated),inactive: 2.88% [at 12.7 µM],
Cn1cccc1C(=O)OCc1cc(-c2ccco2)on1,,"inconclusive: 3.16 µM [inhibitor, single point]"
COc1cc(OC)c(C2C(C(=O)N3CCOCC3)=C(C)NC3=C2C(=O)CC(C)(C)C3)cc1OC (configuration not stated),,"inconclusive: 89.1 µM [inhibitor, single point]"
O=[N+]([O-])c1cc(CN2CCCC2)c2cccnc2c1O,,"inconclusive: 6.31 µM [inhibitor, single point]"
CCOC(=O)Cn1c2c(c(-c3ccccc3OC)cc1=O)CCCC2,,"inconclusive: 56.2 µM [inhibitor, partial curve]"
Cc1ccc(CNS(=O)(=O)c2c(C(=O)N3CCCCCC3)c(C)n(C)c2C)cc1,inactive: 21.3% [at 102 µM],
COc1cc(/C=N/NC(=O)c2cc(C34CC5CC(CC(C5)C3)C4)[nH]n2)ccc1O,,"inconclusive: 44.7 µM [inhibitor, partial curve, poor fit]"
CC(C)N(C(=O)CSc1nc2ccc(Cl)cc2[nH]1)c1ccccc1,,"inconclusive: 39.8 µM [inhibitor, single point]"
CCOc1ccccc1-n1cnc2cc(C(=O)NCc3ccco3)ccc21,inconclusive: -66.4% [inhibitor],
O=C(COC(=O)C1=COCCO1)Nc1ccccc1Oc1ccccc1,,"inconclusive: 3.55 µM [inhibitor, partial curve, poor fit]"

Structure (SMILES),"activity, negative = inhibition",Potency
COc1ccc2nc(NC(=O)c3ccc(-c4cccc([N+](=O)[O-])c4)o3)sc2c1,,"inconclusive: 20 µM [inhibitor, partial curve, poor fit]"
O=C(CN1CCN(c2ccc(O)cc2)CC1)Nc1cc([N+](=O)[O-])ccc1Cl,,active: 5.62 µM
COc1ccc(-c2cc3nc(-c4ccc(C)cc4)cc(C(F)(F)F)n3n2)cc1,inactive: -32.1%,
CCn1c(=O)n(CC)c2cc(N3CCCC3)c(NC(=O)c3ccccc3C)cc21,,active: 50.1 µM
CS/C(=N\S(=O)(=O)c1cccs1)Nc1ccc(Br)cc1F,,"inconclusive: 89.1 µM [inhibitor, single point]"
CCOc1ccc(/C=C2/C(=N)N3OC(C)=CC3=NC2=O)cc1OC,inactive: -47.2% [at 102 µM],
Cc1cc(N/N=C/c2ccccc2)nc(NCc2ccccc2)n1,,"inconclusive: 39.8 µM [inhibitor, single point]"
Cn1c(=O)c2sccc2n2c(CCCC(=O)NCc3ccco3)nnc12,inactive: 23.9% [at 102 µM],
CCOC(=O)C(Cc1ccc(N)cc1)N1C(=O)c2ccccc2C1=O (configuration not stated),,active: 50.1 µM
CC(C)c1nc(C#N)c(N2CCOCC2)o1,inactive: 2.24%,
Cc1noc(NS(=O)(=O)c2ccc(N3C(=O)c4ccccc4C3=O)cc2)c1C,,"inconclusive: 79.4 µM [inhibitor, single point]"
O=C1C(c2ccccc2)C(c2ccccc2)NC(c2ccccc2)C1c1ccccc1 (configuration not stated),,"inconclusive: 79.4 µM [inhibitor, partial curve, poor fit]"
O=C(c1ccc(F)cc1)N1c2nc(-c3ccco3)nn2C2(CCCCC2)[C@@H]2CCCC[C@@H]21,,"inconclusive: 31.6 µM [inhibitor, partial curve, poor fit]"
CC(C)(C)c1ccc(OCC(=O)NCCN2CCOCC2)cc1,,"inconclusive: 50.1 µM [inhibitor, partial curve, poor fit]"
COCC(=O)Nc1ccc(S(=O)(=O)Nc2ccccn2)cc1,,"inconclusive: 89.1 µM [inhibitor, partial curve, poor fit]"
COc1ccc(Cc2nc3ccc(S(=O)(=O)N4CCOCC4)cc3[nH]2)cc1,,"inconclusive: 89.1 µM [inhibitor, single point]"
O=c1oc2ccccc2c(O)c1CN1CCCCC1,,"inconclusive: 79.4 µM [inhibitor, single point]"
COc1ccc(N2CCN(S(=O)(=O)CCNC(=O)C34CC5CC(CC(C5)C3)C4)CC2)cc1,,active: 44.7 µM
CC(=O)CNc1ccc(S(=O)(=O)N/N=C/c2ccccc2)cc1,,active: 6.31 µM
O=C(c1cccc(F)c1)N1CCC2(CC1)CCN(c1cccc(-c3ccccc3)c1)CC2,inactive: -11.6% [at 12.7 µM],
Cc1cccc(N=C2C(=O)Nc3c(Cl)cccc32)c1,,"inconclusive: 79.4 µM [inhibitor, single point]"
CC(Oc1ccc2c3c(c(=O)oc2c1)CCC3)C(=O)NC1CCN(Cc2ccccc2)CC1 (configuration not stated),,"inconclusive: 3.55 µM [inhibitor, partial curve, poor fit]"
CN=C1S/C(=C\c2cc(C)n(-c3ccccc3F)c2C)C(=O)N1C,inconclusive: -65.3% [inhibitor],

Structure (SMILES),"activity, negative = inhibition",Potency
Cc1nc(SCc2ccc(O)c([N+](=O)[O-])c2)n[nH]1,,active: 6.31 µM
CCOC(=O)Cc1csc(NC(=O)CSc2nc(-c3ccccc3)c(C#N)c(=O)[nH]2)n1,,"inconclusive: 89.1 µM [inhibitor, single point]"
COc1cc(/C=N/Nc2cc(C)nc(N)n2)ccc1O,inactive: 13.6% [at 102 µM],
Cc1onc(-c2ccccc2)c1C(=O)N1CCN(C/C=C/c2ccccc2)CC1,,"inconclusive: 89.1 µM [inhibitor, single point]"
Cc1cccc(OCC(=O)N/N=C\c2cn(C)c3ccccc23)c1,,"inconclusive: 31.6 µM [inhibitor, partial curve, poor fit]"
CCOC(=O)C1CCCN(c2c(Nc3ccc(C)c(C)c3)c(=O)c2=O)C1 (configuration not stated),,"inconclusive: 50.1 µM [inhibitor, partial curve, poor fit]"
CCOc1ccc(C(=O)Nc2ccc(S(=O)(=O)N3CCOCC3)cc2)cc1OCC,inactive: -43.7% [at 102 µM],
O=C(NC(=S)Nc1cc([N+](=O)[O-])ccc1O)C1CC1,inactive: 7.39% [at 102 µM],
CCOC(=O)CCSc1nc(C)c2cc(OC)ccc2n1,inactive: -38.6%,
Cc1cccc(C)c1NC(=O)CNC(=O)CCC(=O)c1cccs1,inactive: -4.56%,
CCOc1ccc(-n2c(O)c(/C=N/Nc3nnc(C)c(=O)[nH]3)c3ccccc3c2=O)cc1,,"inconclusive: 39.8 µM [inhibitor, partial curve]"
CCCN(CCC)CCCNC(=O)c1cc2c(=O)n(C)c3ccccc3c2n1C,,"inconclusive: 100 µM [inhibitor, single point]"
COc1ccccc1OCCCC(=O)Nc1ccc(N2CCOCC2)cc1,,"inconclusive: 50.1 µM [inhibitor, partial curve, poor fit]"
Cn1nnc2c(NCCc3ccccc3)ncnc21,inactive: 2.51%,
CC(=O)Nc1ccc(NC(=O)C(C)OC(=O)c2cc(S(=O)(=O)N(C)C)ccc2N2CCCC2)cc1 (configuration not stated),,"inconclusive: 89.1 µM [inhibitor, single point]"
O=C(CNC(=O)c1ccco1)Nc1cc(Cl)ccc1N1CCOCC1,,"inconclusive: 0.398 µM [inhibitor, full curve, poor fit]"
O=C(c1ccncc1)N1CCC2(CCCN(Cc3nccs3)C2)CC1,inactive: -9.46% [at 12.7 µM],
Cc1cccc(N2CCN(C(=O)c3cnn(-c4cccc(Cl)c4C)c3C3CCNCC3)CC2)c1C,,"inconclusive: 25.1 µM [inhibitor, partial curve, poor fit]"
CC(C)c1ccc(OCc2ccc(C(=O)N3CCCC3)o2)cc1,inactive: 5% [at 102 µM],
O=C(Nc1ncc2c(n1)CC(c1ccco1)CC2=O)c1ccc(Cl)cc1 (configuration not stated),,"inconclusive: 89.1 µM [inhibitor, single point]"
Cc1ccc(OCC(=O)Nc2ccc(S(=O)(=O)Nc3cc(C)nc(C)n3)cc2)c(C)c1,,"inconclusive: 50.1 µM [inhibitor, partial curve, poor fit]"
